Laboratory results published in PubChem BioAssay AID1963447 (Molecular Pharmacology Branch, DTP, NCI, 2024).
The source holds more than one record for some entries. This is not the full list of results. An entry can have further records. The values listed for one entry are repeats across runs, samples, wells, individuals or studies. Marks such as (2×) give the number of equal values in this list. Marks such as [2022-09] give the month of the run.

Tested on: 885512-296-R-J2-PDC complex spheroid growth, % test/control
Experiment: Anticancer human tumor 885512-296-R-J2-PDC patient-derived breast carcinoma cell line growth inhibition [Asc]
Conditions: for viability, T/C: stronger effect = lower value
Protocol: Multicellular complex tumor spheroid response to apoptosis pathway targeting inhibitors Alrizomadlin, Pelcitoclax, and Dasminapant in combination with a variety of drugs and investigational agents in selected tumor cell lines
The MDM2 inhibitor alrizomadlin, the Bcl-2/Bcl-xL inhibitor pelcitoclax, and the IAPs inhibitor dasminapant were evaluated both individually and in combination with standard of care and investigational anticancer small molecules within a complex spheroid model of solid tumors. . Complex spheroids include a stromal component modeled by human endothelial cells (HUVEC) and fibroblasts modeled by human mesenchymal stem cells (MSCs). The concentration ranges selected for each drug and investigational agent were based upon clinically achievable concentrations if the clinical Cmax of the agent was known.
Compounds. The drugs and investigational agents: alrizomadlin (APG-115; NSC831270), pelcitoclax (APG-1252; NSC835773), dasminapant (APG-1387;NSC834197), TAK-243 (NSC785004), copanlisib (NSC809693), olaparib (NSC753686), talazoparib (NSC767125), cobimetinib (NSC 768068), eltanexor (KPT-8602, NSC 794443), abemaciclib (NSC 768073), sotorasib (NSC818433), adagrasib (NSC 831453), MRTX-1133 (NSC 836407), Iadademestat (ORY1001, NSC 806812), and RMC-4630 (NSC839698), were obtained from the NCI Developmental Therapeutics Program Chemical Repository. The FDA-approved anticancer drug set is available from the Developmental Therapeutics Program at https://dtp.cancer.gov/organization/dscb/obtaining/available plates.htm. […] The stock solutions were prepared in dimethyl sulfoxide (DMSO, Sigma-Aldrich, St. Louis, MO, cat. D2650) at 800-fold the tested concentration and stored at -70 degrees C prior to their use. All drugs and investigational agents were tested over a range starting from a high concentration at or near the clinical Cmax and decreasing in half-log increments. If the clinical Cmax for an agent had not been determined, the highest concentration tested was 10 microM.
The patient-derived cancer (PDC) cell lines include five colon adenocarcinomas: 186277-243-T-J2-PDC, 616215-338-R-J1-PDC, 439559-082-T-J2-PDC, 463943-066-T-J2-PDC, and 519858-162-T-J1-PDC; three pancreatic carcinomas: 323965-272-R-J2-PDC, 521955-158-R6-J3-PDC, and 521955-158-R2-J5-PDC; two uterine sarcomas: 327498-152-R-J2-PDC and 993429-296-R-J1-PDC; two rhabdomyosarcomas: 755483-174-R-J1-PDC and 772245-204-R-J1-PDC; two soft tissue sarcomas: 126254-015-R-J1-PDC and 494315-158-R-J1-PDC; two malignant fibrous histiocytomas: 317291-083-R-J1-PDC and 596521-263-R-J1-PDC; two breast carcinomas: 171881-019-R-J1-PDC and 885512-296-R-J2-PDC; and one ovarian carcinoma: 6556581-035-R-J-PDC were obtained from the NCI PDMR, (https://pdmr.cancer.gov). The established cell lines HSSY-2 synovial sarcoma (RRID:CVCL 8719), SYO-1 synovial sarcoma (RRID:CVCL_7146), MPNST malignant peripheral neural sheath tumor were obtained from the Sloan Kettering Institute. The following established cell lines were purchased from the American Type Culture Collection (ATCC, Manassas, VA), Sor the received from the NCI repository:, PANC-1 pancreatic carcinoma (CRL-1469, RRID:CVCL_0480), OVCAR-5 ovarian carcinoma (RRID:CVCL_1628), OVCAR-8 ovarian carcinoma (RRID:CVCL_1629), , MCF-7 breast carcinoma (CRL-12584, RRID:CVCL_0031), MDA-MB-231 breast carcinoma (CRL-12532, RRID:CVCL_0062), NCI-H1876 small cell lung carcinoma (CRL-5902, RRID:CVCL_1503), NCI-H510A small cell lung carcinoma (HTB-184, RRID:CVCL_1565), NCI-H1417 (CRL-5869, RRID:CVCL_1469), and NCI-H196 small cell lung carcinoma (CRL-5823, RRID:CVCL_1509). Dr. Peter Houghton (Greehey Children's Cancer Research Institute, University of Texas Health Science Center, San Antonio, TX) provided Rh-18 rhabdomyosarcoma (RRID:CVCL_1659). Pooled donor human umbilical vein endothelial cells (HUVEC, Lonza, cat. CC-2519) and human mesenchymal stem cells (hMSC, Lonza, cat. PT-2501) were purchased from Lonza (Walkersville, MD).
Cell Culture. […]
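Note: spheroids exposed to compounds for seven days.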
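Throughout, for viability, T/C: 100% = DMSO vehicle control wells.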

SMILES: CCN1C(C(=O)NC23CCC(C(=O)O)(CC2)CC3)C(c2cccc(Cl)c2F)C2(C(=O)Nc3cc(Cl)ccc32)C12CCCCC2 (centres undefined)
- viability, T/C (compound alone 0.03 µM): 91, 93.3, 96.2, 87.2, 101, 92.4, 76.4, 95.9, 93.1, 77.9, 94.1, 92.9, 111, 91.8% [2022-09] and 91.6% [2022-10]
- viability, T/C (compound alone 0.3 µM): 79, 105, 86.5, 68.6, 89.5, 87.2, 75.7, 99, 77.3, 104, 88.9, 89.3, 82.1, 86% [2022-09] and 82.5% [2022-10]
- IC50 (compound alone, run of 09/27/2022): 2.14 µM, 2.64 µM, 2.37 µM, > 3 µM, 2.73 µM, 2.05 µM, 1.99 µM, 2.4 µM, 2.58 µM, 2.41 µM

SMILES: Cc1c(S(C)(=O)=O)c(-c2cc(F)cc(N3CCN(c4ccc(NS(=O)(=O)c5ccc(NC(CCN6CCC(C(=O)OCCCP(=O)(O)O)CC6)CSc6ccccc6)c(S(=O)(=O)C(F)(F)F)c5)cc4)CC3)c2)c(-c2ccc(Cl)cc2)n1C(C)C (centres undefined)
- viability, T/C (compound alone 3.16 µM): 98.6, 97.7, 93.6, 100 (3×), 96.9, 97.1, 103, 115, 110, 93, 91.6, 88.8%

SMILES: CNC(C)C(=O)NC1CN(S(=O)(=O)c2cccc(S(=O)(=O)N3CCC4CCC(C(=O)NC(c5ccccc5)c5ccccc5)N4C(=O)C(NC(=O)C(C)NC)C3)c2)CCC2CCC(C(=O)NC(c3ccccc3)c3ccccc3)N2C1=O (centres undefined)
- viability, T/C (compound alone 0.01 µM): 93%, 69.2% [2022-09] and 74.7, 90.3, 87.1, 94.6, 85.3, 77.3, 70, 89.3, 70.2, 93.3, 81.3, 91.2, 88% [2022-10]
- viability, T/C (compound alone 0.0316 µM): 103%, 83.9% [2022-09] and 99, 92.5, 93.7, 101 (2×), 80.8, 85.6, 87.2, 95.5, 77.9, 99.5, 97.2, 110% [2022-10]
- viability, T/C (compound alone 0.1 µM): 113%, 103% [2022-09] and 95.9, 98.2, 99.4, 106, 100, 101, 78.5, 99.7, 84.5, 93.7, 98.7, 96.4, 121% [2022-10]
- viability, T/C (compound alone 0.316 µM): 125%, 112% [2022-09] and 108 (2×), 94.1, 107, 109, 101, 103, 95.5, 106 (2×), 114, 111, 96.8% [2022-10]
- viability, T/C (compound alone 1 µM): 97.1%, 97.7% [2022-09] and 106 (2×), 87.3, 105, 104, 83.6, 103, 88, 99.1, 101, 99.2, 109, 115% [2022-10]
